Experiment [1] deals with Coxsackie B1. Put plainly: organism not typed. The note with it: read-out: Coxsackie B1 EC50.
Experiment [2] has as its system Coxsackie B4. Put plainly: CPE inhibition assay, Coxsackie B4. Type of experiment: cell-based. The note with it: Enterovirus B, B4, HeLa37, 48 h; HeLa, 37° C., 2 days, MTT.
The subject of experiment [3] is Coxsackie B3. Put plainly: microbe, parasite or virus in culture. As to conditions: Enterovirus B, B3, read-out: Coxsackie B3 EC50.
The subject of experiment [4] is Rhinovirus. Put plainly: microbe, parasite or virus in culture. Format: cell-based. As to conditions: Enterovirus.

Where two headings read alike, the source gives them in different places.

The values that follow come from patent publication US9890133B2 (priority 2011, dated 2018).

One may read the EC50 as the concentration that produces a half-maximal response. Consider `CC(C)c1ccc2c(c1)O[C@@]1(O)c3cccc(O)c3C(=O)[C@@]21O` [Example 43, 1,4b,9b-Trihydroxy-7-isopropyl-4bH-benzo[d]indeno[1,2-b]furan-10(9bH)-one], for which the EC50 is less than 0.01 µg/mL in experiment [1] (HeLa37, 48 h); less than 0.01 µg/mL in experiment [1]; less than 0.01 µg/mL in experiment [2].

In the case of `CC(C)c1ccc2c(c1)OC1(O)c3cccc(N)c3C(=O)C21NC(=O)c1nc2cc(F)ccc2[nH]1` (centres unmarked) [Example 291, N-(1-Amino-4b-hydroxy-7-isopropyl-10-oxo-9b,10-dihydro-4bH-indeno[1,2-b]benzofuran-9b-yl)-5-fluoro-1H-benzo[d]imidazole-2-carboxamide], the EC50 is less than 0.01 µg/mL in experiment [1]; less than 0.01 µg/mL in experiment [3]; less than 0.01 µg/mL in experiment [4] (HRV14, read-out: Rhino HRV14 EC50); less than 1 µg/mL in experiment [4] (HRV21, read-out: Rhino HRV21 EC50); less than 1 µg/mL in experiment [4] (HRV71, read-out: Rhino HRV71 EC50).
